The values below come from paper PMC8730729.

The chains behind the UniProt entries cited, without tags or fusion partners.
UniProt Q86V87: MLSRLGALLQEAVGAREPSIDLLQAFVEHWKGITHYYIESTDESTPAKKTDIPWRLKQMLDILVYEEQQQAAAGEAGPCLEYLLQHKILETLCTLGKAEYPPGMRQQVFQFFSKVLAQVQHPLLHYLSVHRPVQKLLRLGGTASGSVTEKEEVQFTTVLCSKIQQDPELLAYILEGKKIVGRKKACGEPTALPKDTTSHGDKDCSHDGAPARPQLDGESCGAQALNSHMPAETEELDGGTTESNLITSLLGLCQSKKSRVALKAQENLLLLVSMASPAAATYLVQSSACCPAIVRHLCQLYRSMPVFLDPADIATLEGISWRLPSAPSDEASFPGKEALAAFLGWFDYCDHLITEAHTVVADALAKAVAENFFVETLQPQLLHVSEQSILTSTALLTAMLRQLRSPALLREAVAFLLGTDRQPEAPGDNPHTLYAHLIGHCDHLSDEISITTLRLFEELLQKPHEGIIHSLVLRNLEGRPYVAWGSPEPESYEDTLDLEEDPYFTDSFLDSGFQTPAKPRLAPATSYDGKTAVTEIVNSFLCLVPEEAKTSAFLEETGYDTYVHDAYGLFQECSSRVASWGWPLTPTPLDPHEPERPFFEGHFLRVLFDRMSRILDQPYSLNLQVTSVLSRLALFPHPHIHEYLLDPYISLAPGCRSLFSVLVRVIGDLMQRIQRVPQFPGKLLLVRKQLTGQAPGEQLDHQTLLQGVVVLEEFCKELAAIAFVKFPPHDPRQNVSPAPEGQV

These are yes or no findings as the source states them, for the method shown. In cells and extracts the contact can be indirect. Some entries that bind do so weakly or less than the wild type. For part of these data: Tags and fused reporters may be left off the sequences shown.

Common to all, as to assay: co-IP; FLAG affinity resin IP of FHIP-BioID2-3xFLAG baits from stable 293T cell lines; immunoblots with anti-Hook1, anti-Hook2, anti-Hook3; BioID2-3xFLAG as control
In general terms: In western blotting, separated proteins are transferred to a membrane and probed.

Experiment [1] deals with FHIP1A tagged at the carboxy terminus with BioID2 and 3xFLAG (human) (UniProt Q05DH4).
For experiment [2], the target named is FHIP2A tagged at the carboxy terminus with BioID2 and 3xFLAG (human) (UniProt Q5W0V3).
Experiment [3] concerns the target FHIP2B tagged at the carboxy terminus with BioID2 and 3xFLAG (human) (UniProt Q86V87).

B1: Hook2, endogenous in 293T cells (protein, UniProt Q96ED9 1-719)
chain: MSVDKAELCGSLLTWLQTFHVPSPCASPQDLSSGLAVAYVLNQIDPSWFNEAWLQGISEDPGPNWKLKVSNLKMVLRSLVEYSQDVLAHPVSEEHLPDVSLIGEFSDPAELGKLLQLVLGCAISCEKKQDHIQRIMTLEESVQHVVMEAIQELMTKDTPDSLSPETYGNFDSQSRRYYFLSEEAEEGDELQQRCLDLERQLMLLSEEKQSLAQENAGLRERMGRPEGEGTPGLTAKKLLLLQSQLEQLQEENFRLESGREDERLRCAELEREVAELQHRNQALTSLAQEAQALKDEMDELRQSSERAGQLEATLTSCRRRLGELRELRRQVRQLEERNAGHAERTRQLEDELRRAGSLRAQLEAQRRQVQELQGQRQEEAMKAEKWLFECRNLEEKYESVTKEKERLLAERDSLREANEELRCAQLQPRGLTQADPSLDPTSTPVDNLAAEILPAELRETLLRLQLENKRLCRQEAADRERQEELQRHLEDANRARHGLETQHRLNQQQLSELRAQVEDLQKALQEQGGKTEDAISILLKRKLEEHLQKLHEADLELQRKREYIEELEPPTDSSTARRIEELQHNLQKKDADLRAMEERYRRYVDKARMVMQTMEPKQRPAAGAPPELHSLRTQLRERDVRIRHLEMDFEKSRSQREQEEKLLISAWYNMGMALQQRAGEERAPAHAQSFLAQQRLATNSRRGPLGRLASLNLRPTDKH
For the molecule B1, the binding result in experiment [1] is given as “no binding”; in experiment [2], “binds”; in experiment [3], “binds”.
